In publication PMC4336329 (PLoS ONE, 2015):
The campaign covered roughly 310,000 compounds. About 2,200 (0.71%) showed an effect of 50% or more. Effects have a minus sign here. Some of the results follow.

biological target: human ether-à-go-go-related gene (hERG) potassium channel (human, UniProt Q12809); assay: primary screen, population patch clamp on CHO cells stably expressing hERG
Sequence (Q12809 whole entry, looked up): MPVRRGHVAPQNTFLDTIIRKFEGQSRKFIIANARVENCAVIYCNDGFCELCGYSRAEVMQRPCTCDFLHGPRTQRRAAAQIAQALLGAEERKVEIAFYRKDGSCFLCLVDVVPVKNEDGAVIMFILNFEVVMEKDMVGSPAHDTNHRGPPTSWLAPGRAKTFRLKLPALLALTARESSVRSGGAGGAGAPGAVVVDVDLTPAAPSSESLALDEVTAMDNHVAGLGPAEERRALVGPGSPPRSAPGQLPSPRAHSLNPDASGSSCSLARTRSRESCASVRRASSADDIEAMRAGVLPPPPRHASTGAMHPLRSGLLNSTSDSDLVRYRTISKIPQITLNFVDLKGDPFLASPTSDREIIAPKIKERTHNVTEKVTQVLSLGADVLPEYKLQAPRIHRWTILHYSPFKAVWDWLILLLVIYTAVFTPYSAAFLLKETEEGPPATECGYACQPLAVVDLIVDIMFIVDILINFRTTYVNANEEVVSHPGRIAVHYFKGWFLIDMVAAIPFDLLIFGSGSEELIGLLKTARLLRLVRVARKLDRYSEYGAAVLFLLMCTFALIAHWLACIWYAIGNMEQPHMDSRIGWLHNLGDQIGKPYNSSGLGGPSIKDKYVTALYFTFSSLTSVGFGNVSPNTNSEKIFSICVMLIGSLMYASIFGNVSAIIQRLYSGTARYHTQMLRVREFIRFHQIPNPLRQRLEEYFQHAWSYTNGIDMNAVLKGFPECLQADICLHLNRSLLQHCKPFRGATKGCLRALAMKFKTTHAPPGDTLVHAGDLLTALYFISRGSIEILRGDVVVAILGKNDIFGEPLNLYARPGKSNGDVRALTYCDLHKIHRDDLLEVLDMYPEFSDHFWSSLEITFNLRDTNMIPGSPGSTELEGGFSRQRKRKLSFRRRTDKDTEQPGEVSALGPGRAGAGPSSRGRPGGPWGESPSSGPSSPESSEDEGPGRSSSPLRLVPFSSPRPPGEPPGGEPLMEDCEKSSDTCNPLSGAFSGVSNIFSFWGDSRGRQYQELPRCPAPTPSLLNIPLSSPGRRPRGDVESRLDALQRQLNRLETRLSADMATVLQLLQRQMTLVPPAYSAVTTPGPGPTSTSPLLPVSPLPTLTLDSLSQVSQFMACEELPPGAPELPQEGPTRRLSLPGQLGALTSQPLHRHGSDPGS

SMILES | hERG current change (%, negative = inhibition) at 1uM
Cl.O=C(O)c1cc([N+](=O)[O-])cc([N+](=O)[O-])c1N1CCN(c2cccc(C(F)(F)F)c2)CC1 | 17.2%
COc1cccc(NC(=O)NC(C)C2CC3CCC2C3)c1 (stereo not shown) | 12.3%
C/C(CC(=O)Nc1cccc(Cl)c1Cl)=N\NC(=O)c1ccccc1C | 8.35%
CC(c1ccco1)N(C(=O)c1ccc(C#N)cc1)c1ccccn1 (stereo not shown) | 5.5%
Cc1cccc(NC(=S)NC(C)C(c2cccs2)N2CCN(C)CC2)c1C (stereo not shown) | -11.1%
COc1ccccc1-n1c(CNC(=O)c2cccc([N+](=O)[O-])c2C)n[nH]c1=S | 15.5%
O=C(NNC(=O)c1csc(-c2cccnc2)n1)c1ccccc1 | -0.718%
Cn1cccc1-c1cc(C(=O)N/N=C/c2ccc(F)cc2)[nH]n1 | 6.62%
O=C(NC(=S)Nc1ccc(Cl)cn1)c1cc([N+](=O)[O-])ccc1N1CCOCC1 | 13.7%
O=C(C[n+]1cc(-c2ccc(Cl)cc2)n2c1CCC2)N1c2ccccc2Sc2ccccc21.[Cl-] | 7.01%
Cc1ccc(C(=O)CSc2nc3ccccc3c(=O)n2-c2ccccc2)s1 | 6.06%
CC1(C(=O)O)COC(c2ccc(Cl)cc2)OC1 (stereo not shown) | -7.39%
Cc1cccc(NC(=O)CCN2C(=O)C3C4C=CC(C4)C3C2=O)n1 (stereo not shown) | 8.01%
CN1CCN(S(=O)(=O)c2ccc(N(C)Cc3cccs3)nc2)CC1 | 9.23%
Cc1ccc(CS(=O)Cc2ccc(C(=O)NC3CCC(C)CC3)o2)cc1 (stereo not shown) | 14%
CC(=O)Nc1sc(N/N=C/c2ccccc2)nc1-c1ccc(C)cc1 | 11.7%
N#Cc1cc2ccccc2nc1SCc1cccnc1 | -8.94%
Cc1ccc(S(=O)(=O)NC(=O)c2cc(C)n(CC(c3ccccc3)N(C)C)c2C)cc1 (stereo not shown) | 6.34%
Cc1ccc(C)c(OCCC(=O)OCC(=O)NC2CCCC2)c1 | 9.05%
CC(Sc1nnc2c(n1)[nH]c1ccccc12)C(=O)N(C)C1CCCCC1 (stereo not shown) | 8.41%
CCCc1nn2c(=O)cc(CSCC(=O)Nc3ccc(C)cc3)nc2s1 | 12.8%
O=C(CCNC(=O)c1ccco1)NCCN1C(=O)S/C(=C\c2ccc(F)cc2)C1=O | 12.8%

SMILES | hERG current change (%, negative = inhibition) at 1uM
NS(=O)(=O)c1ccc(Nc2ccccc2)c([N+](=O)[O-])c1 | 8.08%
CCOc1cc(/C=C/c2cccc[n+]2C)ccc1O.[I-] | 16.8%
CS(=O)(=O)Nc1cccc(C(=O)CC2(O)C(=O)Nc3ccc(Br)cc32)c1 (stereo not shown) | 13%
CCC(=O)N1CCN(c2ccc(NC(=S)NC(=O)c3ccc(OC)c([N+](=O)[O-])c3)cc2)CC1 | 7.96%
CCO[C@H]1OC(C(=O)N2CCOCC2)=C[C@@H](c2ccc(Br)cc2)[C@@H]1CCCO | -1.89%
Cl.O=C(c1cc2ccccc2o1)N1CCN(Cc2ccccc2)CC1 | -5.81%
COc1nccc(-c2ccc(F)cc2)c1C#N | 16.9%
CCC1=NNc2cccc3c(OC)ccc1c23 | 8.13%
CCCN1CNC(=S)N(c2cccc(C)c2C)C1 | -0.0042%
COCCn1c(-c2ccccc2)cc(C(=O)O)c1C | 14.7%
Cc1c(-c2ccccc2)nc2ccccc2c1C(=O)O | 10.1%
Cc1c(C(=O)NCc2ccoc2)oc2ccc3c(c12)C(=O)CC(C)(C)O3 | 9.59%
CN(CC1COc2ccccc2O1)C(=O)c1cc(COc2c(F)cccc2F)on1 (stereo not shown) | 8.21%
CCOC(=O)C1CCN(C(C)=C2C(=O)c3ccccc3C2=O)CC1 | 2.4%
CCc1ccc(C(=O)Nn2c(C)nc3ccccc3c2=O)cc1 | 8.2%
CN(C)c1ccc(/C=C2/C(=O)NC(=O)N(CCc3ccc(F)cc3)C2=O)cc1 | 10.4%
O=C(CCSCc1cccc(F)c1)NCc1ccc(F)cc1 | -9.29%
Clc1ccc2nc3ccccn3c2c1 | 7.9%
Cc1ccc(-n2nc(C)c(C(C)(O)C(F)(F)F)c2N)cc1 (stereo not shown) | 0.0166%
O=C(Nc1cccc2cccnc12)c1ccc(Cl)cc1Cl | 14.1%
N#Cc1ccccc1S(=O)(=O)N1CCN(C(=O)Cc2coc3cc(O)ccc23)CC1 | 3.12%
